# The shares of active, inactive and inconclusive entries below differ from those in the screen. Where a call stands in place of a potency, no number is given. For some of these results: Where the call is inconclusive, the potency comes from a doubtful curve fit. Calls of active or inactive are those of the source. Calls come from the whole dose curve; as a rule, active = well fitted curve in the direction sought with a large enough effect; inconclusive = small, poorly fitted or top-dose-only effect, or another doubt; inactive = no such curve, though single readings can be large; an effect the other way counts as inactive or inconclusive.
# Experiments:
# [1] = Primary qHTS for inhibitors of nuclear receptor binding SET domain protein 2 (NSD2) in an isogenic RCH-ACV NSD2 p.E1099K mutant (9B) (AID 1645876); settings: activity change, negative = viability loss: at 44.9 µM (top of the series) unless noted; note: nearly all actives have a fitted effect of over 70% in size
# [2] = Primary fluorescence-based thiol-reactive (MSTI) qHTS assay for identification of artifact compounds. (AID 1845221);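 note: thiol-reactive compounds lower the probe fluorescence signal; nearly all actives have a fitted effect of over 65% in size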
# How it was run: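 Curve-fitted percent inhibition (4-parameter Hill) derived from fluorescence, Ex 525/Em 598 nm, scaled with Acetyl-MSTI and MSTI; 1 h incubation at room temperature.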
# [3] = system: CAOV3; test: Primary qHTS to identify gynecologic anti-cancer compounds using libraries of approved drugs and bioactive compounds (AID 1345084); settings: Gynecologic cancer cell panel viability, ATPlite luminescence, 48 h; series mostly up to 57.5 µM; note: nearly all actives have a fitted effect of over 55% in size; note: potency is the fitted concentration of half-maximal effect
# How it was run: (§1)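 Cytotoxicity screen measuring ATP content by luciferase luminescence. Each compound is applied at five concentrations for 48 h at 37 C with 5% CO2.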
# [4] = system: SKOV3; test: as above; settings: Gynecologic cancer cell panel viability, ATPlite luminescence, 48 h; series mostly up to 57.5 µM
# How it was run: as §1
# [5] = P-glycoprotein substrates identified in KB-8-5-11 adenocarcinoma cell line, qHTS therapeutic library screen (AID 1346987); settings: activity change, negative = cytotoxicity: at 44.5 µM (top of the series); note: nearly all actives have a fitted effect of over 65% in size
# How it was run: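 Human cervical adenocarcinoma KB-8-5-11 cells, selected in colchicine to over-express P-gp and assayed without it, were exposed for 72 h to titrated compounds. An ATP-based luminescent viability signal gave AC50.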
# [6] = biological target: Luciferin 4-monooxygenase (Photinus pyralis) (UniProt P08659); test: Primary firefly luciferase (FLuc) qHTS assay for identification of artifact compounds. (AID 1845220); note: nearly all actives have a fitted effect of over 60% in size
# How it was run: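 In this counter-screen for luciferase artifacts, test compounds met substrate (10 uM each luciferin and ATP) before 10 nM enzyme started the reaction. Light output was measured 5 min later.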
# Tags give direction and shape of the fitted curve.
Compound,Potency [1],Potency [2],Potency [3],Potency [4],Potency [5],Potency [6]
C[C@@H]1O[C@@H](O[C@H]2[C@H](O)[C@@H](O)[C@H](OC3CCC4(C)C5CCC(C)(C(CO)OC6OC(CO)C(O)C(O)C6O)CC5=CCC4C3(C)C)O[C@@H]2CO)[C@H](O)[C@H](O)[C@H]1O (some centres not stated),inactive,inactive,"inconclusive: 891 nM [cytotoxic, partial curve, poor fit]",inactive,–,–
CN1C(=O)c2ccccc2-n2c(nc3ccccc3c2=O)/C1=C/c1ccccc1,–,–,inactive,–,inactive,inactive
